Measurements reported in the supplement of paper PMC11417369.
Some of the results follow.

tested on: PfSIP2 AP2 domain 1 (GST-tagged); experiment: gcPBM binding intensity (ln(normalized median fluorescence intensity)); higher = stronger DNA binding
Method in brief: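 Binding intensity is the highest Masliner-normalised natural-log median intensity over replicate spots in either probe orientation. To obtain it, GST-tagged P. falciparum DNA-binding domains made in E. coli were incubated for 1 h on an Agilent 4 × 180k array of primer-extended double-stranded 36-bp intergenic genomic probes plus negative controls. Detection used Alexa488 anti-GST antibody with scanning at 488 nm.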

| Sequence | gcPBM binding intensity (ln) |
| --- | --- |
| TGCAGTCTGGAGAAAAGTACACAGTATCTGGTAGCT [XGTACX_site2013] | 7.04 |
| AATATCATAAAATAAAGTACAAATATATATTGAAAA [XGTACX_site8813] | 6.76 |
| TTCTGGTGTAAATGCACACAGAAGAAGAAAAAAAAA [CACACA_site3685] | 7.92 |
| TAATTTAATTTTCCAAGAAAAAAAAAAGAAAAAAGA [CACACA_negctrl_site1703] | 6.76 |
| TAACATCCTAATGTCACACATGTTATAGGTTTAAAT [CACACA_site5649] | 6.75 |
| ATATAATATTACAAATGTACTTTAAAAAATTAGGAG [XGTACX_site3897] | 7.25 |
| TTGTTTCAAGAAAAAATCGAAAAACATAGAAAAAAA [XGTACX_negctrl_site615] | 6.88 |
| ACATATAAAATATATACACACATATAAATACATTAA [CACACA_site3867] | 7.06 |
| TATATATCAAAAATATGTACACAGAAATATATATTA [XGTACX_site6997] | 7.21 |
| TTGCAATAATGTTGCACACTAAATAGTCATATATAA [CACACA_site263] | 7.31 |
| TTTTAGTGAAATGAGTGTACATTATATATTTTTTTT [XGTACX_site4892] | 6.86 |
| ATTCTATATATATAAACACACAAATATTTTTATATA [CACACA_site1677] | 7.24 |
| AAGACTAATCTAGGTAGTACTTATATATCTTTATTT [XGTACX_site4572] | 6.81 |
| ATATAAGGAAGGGATGCACACAAAAGGGTACATAAG [CACACA_site9328] | 7.6 |
| ATATTTTTGTTCAGGAGTACAGTTCAAGATGAAAAT [XGTACX_site4178] | 7.29 |
| ATAACATAATAGCAACAATTTATTTCCTCTATAACA [CACACA_negctrl_site243] | 6.94 |
| TTTTTTATATATGTGTGTGTGTGTGTGTCAAGTTTA [GTGCAC_negctrl_site460] | 7.4 |
| TTTGGGATATTTACAGTGCAAAGATATTTTTATAAT | 8.08 |
| AATGGGGAAGGTTCTACACACAACGCAAATGCCTTA [CACACA_site2758] | 6.74 |
| TATAAATAATGTTAAACACACATACCGATATATAAT [CACACA_site5499] | 6.93 |
| AAATTATTATGTATTTGTACACATAAGAATATAAAA [XGTACX_site6841] | 6.88 |
| AGAGAAAGAAAGAAATGTACAAATACCTACACACAT [XGTACX_site3140] | 6.9 |

| Sequence | gcPBM binding intensity (ln) |
| --- | --- |
| TCAGTTAATGTATATGTACACACGGTGAGTATATAT [CACACA_site3346] | 6.96 |
| CTATAAATGAATGTTTGTACTTAATAATAAAAGAAA [XGTACX_site3170] | 6.92 |
| TTTTTTACAAATGATATCATTTCTTTAAATATTAAA [TGCATGCA_negctrl_site279] | 6.95 |
| TATTTTTTTCATAACAGTACAATAATATATATTTTT [XGTACX_site5739] | 7.07 |
| GCACACACAAAAAAAGCATGCATACTAGCTATTTTT [TGCATGCA_site18] | 6.99 |
| AATCAAAAAAAATGTTGTACGCCTAATTATAATTAA [XGTACX_site8906] | 7.37 |
| AATGAAATAAATAAGGGTACACATAAATATATATAT [XGTACX_site7006] | 8.84 |
| TATTCGTGCAATAATAGTACACTTATAAATTATTCA [XGTACX_site8993] | 7.7 |
| AAAAAACACCCATACACACACACACCGATATATATA [CACACA_site5808] | 7.59 |
| TTTATAAGAATTACTAGTACATATAAGGAATTATAT [XGTACX_site3953] | 7 |
| CATTTTTTATAATAATGTACATGTATTAAAAAAAAA [XGTACX_site6390] | 6.91 |
| TTATAAATTTAAAGTAGTACTATACTACTATTTTAT [XGTACX_site3038] | 6.69 |
| ATCCACAAAATAGGATGTACATATAAAATAAATAAA [XGTACX_site5362] | 7.13 |
| TATGGAATAATACGCGTACACACATATATATATTAA [CACACA_site132] | 7.3 |
| CATTATGTCATAAATGCACACATATATATATACATA [CACACA_site8454] | 7.38 |
| TATTTAAAAGTATATACACACAACTGGAATGAAAAG [CACACA_site4126] | 7.37 |
| TATTTTAATCGTAAGTGTACTCTTTTAAGTATATGT [XGTACX_site8591] | 7.01 |
| ATTATAACACCTCCCCCCCTTTTTTTATGAAGACCA [CACACA_negctrl_site1043] | 9.67 |
| TATGTATGCCCTAATGCATGTGAACAAAATAATATA [TGCATGCA_site407] | 6.87 |
| AAAATTAAAAAAATAAATACATTATATAATTAAAAA [CACACA_negctrl_site1426] | 6.77 |
| AACAGACATAGACACACACACATATATTTATTTATA [CACACA_site7571] | 7.17 |
| ATGCAAATAATATAAAGTACACAACATCGCCCAAAG [XGTACX_site1825] | 7.45 |
